Measured values taken from PubChem BioAssay AID1347073 (National Center for Advancing Translational Sciences (NCATS), 2019).
Hit rate of the full screen: of about 45,000 compounds, about 200 (0.44%) were called active. Another 7% or so got no clear call; they are omitted. The call rests on the fitted dose curve; in most records, active means well fitted activation curve with a large enough effect; inconclusive means small, poorly fitted or top-dose-only effect; inactive means no such curve, though single readings can be large or run the other way. Some of the results follow.

Assay: qHTS of TDP-43 Inhibitors: NCGC Sytravon Library Screen; further: 0% is about no effect; nearly all actives have a fitted effect of over 55% in size
Conditions: yeast TDP-43 toxicity rescue, BacTiter-Glo growth, 24 h; series mostly up to 46.1 µM; growth rescue (activation): at the top concentration
In short: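 TDP-43-expressing yeast, pregrown in raffinose, seeded at OD600 0.02 in galactose medium with compound for 24 hr at 30 deg C. Growth read by BacTiter-Glo luminescence, so rescue of toxicity appears as activation.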

SMILES | growth rescue (activation)
O=C(NC1CCCC1)C(c1ccccn1)N(C(=O)c1csnn1)c1ccccc1Cl (stereo not drawn) | inactive: 7.71%
Clc1cccc(OCCN2CCN(CCOc3cccc(Cl)c3)CC2)c1 | inactive: 3.36%
COc1ccccc1NS(=O)(=O)c1ccc(C(=O)NCc2ccc(S(N)(=O)=O)cc2)cc1 | inactive: -5.13%
CCn1ccnc1CN(C)Cc1c(C(=O)N2C[C@@H](C)O[C@@H](C)C2)nc2ccc(Cl)cn12 | inactive: 16.4%
CC(C)Oc1ccc(C(=O)NC(=S)N2CCOCC2)cc1 | inactive: 27.3%
Cc1ccc(S(=O)(=O)N2CC(O)C[C@H]2C(=O)OCC(=O)c2ccccc2)cc1 (stereo partly drawn) | inactive: 15%
COc1ccc(Cl)cc1NC(=O)CSc1nc(NS(=O)(=O)c2ccccc2)cc(=O)[nH]1 | inactive: 10.4%
O=C(Nc1ccc(Oc2nnc(-c3ccccc3)c3ccccc23)cc1)c1ccccc1 | inactive: 15.2%
CCNC(=O)CN1C(=O)NC2(CCOc3ccccc32)C1=O (stereo not drawn) | inactive: -12.2%
CCOC(=O)C1CCCN(C(=O)CNC(=O)c2nn(-c3ccc(OC)c(Cl)c3)c(=O)c3ccccc23)C1 (stereo not drawn) | inactive: 14%
CC(=O)Nc1cccc(OCC(=O)Nc2ccc(F)cc2)c1 | inactive: 13.5%
CCN(CC)CCNC(=O)c1cc2c(=O)n(CC)c3ccccc3c2s1 | inactive: -4.36%
COc1ccccc1CNC(=O)CN1C(=O)NC2(CCCCCCC2)C1=O | inactive: 3.61%
Cc1ccc2c(c1)C(=O)C(=O)N2CC(=O)Nc1ccccc1NC(=O)c1ccccn1 | inactive: -10.3%
COc1ccc(N(CC(=O)NCc2ccco2)S(C)(=O)=O)c(OC)c1 | inactive: -0.0257%
Cc1cccc(-n2c(SCC(=O)N3CCCC3)nnc2-c2ccccn2)c1C | inactive: 31.3%
CCCc1nc(SCC(=O)N2CCOCC2)c2c(C)c(C)sc2n1 | inactive: 12.8%
O=C(CNC(=O)c1ccc(F)cc1)c1ccc(Cl)cc1 | inactive: -38.7%
COC(=O)C(NS(=O)(=O)c1ccc(C)cc1)c1ccccc1 (stereo not drawn) | inactive: -11.4%
O=C(NCc1ccco1)/C(=C/c1ccc([N+](=O)[O-])cc1)NC(=O)c1ccco1 | inactive: 8.84%
Cc1cc(C(=O)N/N=C(\CCC(=O)O)c2cccs2)c2ccccc2n1 | inactive: 9.23%
COc1ccc(-c2csc3nc[nH]c(=O)c23)cc1OC | inactive: -3.28%
Cc1cc2nc(/N=C(\N)NC(=O)N3c4ccccc4Sc4ccccc43)nc(C)c2cc1C | inactive: 18.8%
CCCOc1ccccc1NC(=O)Nc1ccccc1Cl | inactive: 2.69%
N=c1c(S(=O)(=O)c2ccccc2)cc2c(=O)n3ccccc3nc2n1C1CCCCC1 | inactive: -2.44%
Cc1cccc(NS(=O)(=O)c2ccc(C)c(NS(=O)(=O)c3cccs3)c2)c1 | inactive: -26.4%
CCCNC(=O)C1(C)CCCN(Cc2ccc(Cl)cc2)C1 (stereo not drawn) | inactive: 7.64%
CCc1nc2c(OCc3ccc(F)c(F)c3)cccn2c1N(C)C(=O)c1ccc(OC)cc1 | inactive: -4.48%
